{"source": "the supplement of paper PMC8728848", "test_in_all_cases": "glycan array binding signal (z-score within array); higher = stronger binding", "details_in_all_cases": "glycan notation: IUPAC condensed, linker removed", "key": {"[1]": {"molecular_target": "Gal(b1-4)GlcNAc(b1-2)[Gal(b1-4)GlcNAc(b1-6)]Man(a1-6)[GlcNAc(b1-4)][Gal(b1-4)GlcNAc(b1-2)Man(a1-3)]Man(b1-4)GlcNAc(b1-4)GlcNAc", "in_short": "(§1)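 Arrays were curated from the Consortium for Functional Glycomics database, 3228 in total, and kept only where the protein sequence was available. Binding is expressed as a within-array Z-score. This score was averaged across arrays of the same protein sequence at different concentrations or buffers and across linkers, and negative values can be read as non-binding.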"}, "[2]": {"molecular_target": "Gal(b1-4)GlcNAc(b1-2)[Gal(b1-4)GlcNAc(b1-6)]Man(a1-6)[GlcNAc(b1-4)][Gal(b1-4)GlcNAc(b1-2)[Gal(b1-4)GlcNAc(b1-4)]Man(a1-3)]Man(b1-4)GlcNAc(b1-4)[Fuc(a1-6)]GlcNAc", "in_short": "as §1"}, "[3]": {"molecular_target": "Gal(b1-4)GlcNAc(b1-3)Gal(b1-3)GalNAc", "in_short": "as §1"}, "[4]": {"molecular_target": "Gal(b1-4)GlcNAc(b1-3)Gal(b1-3)GlcNAc", "in_short": "as §1"}, "[5]": {"molecular_target": "Gal(b1-4)GlcNAc(b1-3)Gal(b1-4)Glc", "in_short": "as §1"}, "[6]": {"molecular_target": "Gal(b1-4)GlcNAc(b1-3)Gal(b1-4)GlcNAc", "in_short": "as §1"}, "[7]": {"molecular_target": "Gal(b1-4)GlcNAc(b1-3)Gal(b1-4)GlcNAc(b1-2)Man(a1-3)[Gal(b1-4)GlcNAc(b1-3)Gal(b1-4)GlcNAc(b1-2)Man(a1-6)]Man(b1-4)GlcNAc(b1-4)GlcNAc", "in_short": "as §1"}, "[8]": {"molecular_target": "Gal(b1-4)GlcNAc(b1-3)Gal(b1-4)GlcNAc(b1-2)Man(a1-3)[Gal(b1-4)GlcNAc(b1-3)Gal(b1-4)GlcNAc(b1-2)Man(a1-6)]Man(b1-4)GlcNAc(b1-4)[Fuc(a1-6)]GlcNAc", "in_short": "as §1"}, "[9]": {"molecular_target": "Gal(b1-4)GlcNAc(b1-3)Gal(b1-4)GlcNAc(b1-2)[Gal(b1-4)GlcNAc(b1-3)Gal(b1-4)GlcNAc(b1-6)]Man(a1-6)[Gal(b1-4)GlcNAc(b1-3)Gal(b1-4)GlcNAc(b1-2)Man(a1-3)]Man(b1-4)GlcNAc(b1-4)GlcNAc", "in_short": "as §1"}, "[10]": {"molecular_target": "Gal(b1-4)GlcNAc(b1-3)Gal(b1-4)GlcNAc(b1-2)[Gal(b1-4)GlcNAc(b1-3)Gal(b1-4)GlcNAc(b1-6)]Man(a1-6)[Gal(b1-4)GlcNAc(b1-3)Gal(b1-4)GlcNAc(b1-2)Man(a1-3)]Man(b1-4)GlcNAc(b1-4)[Fuc(a1-6)]GlcNAc", "in_short": "as §1"}, "[11]": {"molecular_target": "Gal(b1-4)GlcNAc(b1-3)Gal(b1-4)GlcNAc(b1-3)Gal(b1-4)GlcNAc", "in_short": "as §1"}, "[12]": {"molecular_target": "Gal(b1-4)GlcNAc(b1-3)Gal(b1-4)GlcNAc(b1-3)Gal(b1-4)GlcNAc(b1-2)Man(a1-3)[Gal(b1-4)GlcNAc(b1-3)Gal(b1-4)GlcNAc(b1-3)Gal(b1-4)GlcNAc(b1-2)Man(a1-6)]Man(b1-4)GlcNAc(b1-4)GlcNAc", "in_short": "as §1"}, "[13]": {"molecular_target": "Gal(b1-4)GlcNAc(b1-3)Gal(b1-4)GlcNAc(b1-3)Gal(b1-4)GlcNAc(b1-2)Man(a1-3)[Gal(b1-4)GlcNAc(b1-3)Gal(b1-4)GlcNAc(b1-3)Gal(b1-4)GlcNAc(b1-2)Man(a1-6)]Man(b1-4)GlcNAc(b1-4)[Fuc(a1-6)]GlcNAc", "in_short": "as §1"}, "[14]": {"molecular_target": "Gal(b1-4)GlcNAc(b1-3)Gal(b1-4)GlcNAc(b1-3)Gal(b1-4)GlcNAc(b1-2)[Gal(b1-4)GlcNAc(b1-3)Gal(b1-4)GlcNAc(b1-3)Gal(b1-4)GlcNAc(b1-6)]Man(a1-6)[Gal(b1-4)GlcNAc(b1-3)Gal(b1-4)GlcNAc(b1-3)Gal(b1-4)GlcNAc(b1-2)Man(a1-3)]Man(b1-4)GlcNAc(b1-4)[Fuc(a1-6)]GlcNAc", "in_short": "as §1"}, "[15]": {"molecular_target": "Gal(b1-4)GlcNAc(b1-3)Gal(b1-4)GlcNAc(b1-3)Gal(b1-4)GlcNAc(b1-3)Gal(b1-4)GlcNAc(b1-2)Man(a1-3)[Gal(b1-4)GlcNAc(b1-3)Gal(b1-4)GlcNAc(b1-3)Gal(b1-4)GlcNAc(b1-3)Gal(b1-4)GlcNAc(b1-2)Man(a1-6)]Man(b1-4)GlcNAc(b1-4)GlcNAc", "in_short": "as §1"}, "[16]": {"molecular_target": "Gal(b1-4)GlcNAc(b1-3)Gal(b1-4)GlcNAc(b1-3)Gal(b1-4)GlcNAc(b1-3)Gal(b1-4)GlcNAc(b1-2)Man(a1-3)[Gal(b1-4)GlcNAc(b1-3)Gal(b1-4)GlcNAc(b1-3)Gal(b1-4)GlcNAc(b1-3)Gal(b1-4)GlcNAc(b1-2)Man(a1-6)]Man(b1-4)GlcNAc(b1-4)[Fuc(a1-6)]GlcNAc", "in_short": "as §1"}, "[17]": {"molecular_target": "Gal(b1-4)GlcNAc(b1-3)Gal(b1-4)GlcNAc(b1-3)Gal(b1-4)GlcNAc(b1-3)Gal(b1-4)GlcNAc(b1-2)[Gal(b1-4)GlcNAc(b1-3)Gal(b1-4)GlcNAc(b1-3)Gal(b1-4)GlcNAc(b1-3)Gal(b1-4)GlcNAc(b1-6)]Man(a1-6)[Gal(b1-4)GlcNAc(b1-3)Gal(b1-4)GlcNAc(b1-3)Gal(b1-4)GlcNAc(b1-3)Gal(b1-4)GlcNAc(b1-2)Man(a1-3)]Man(b1-4)GlcNAc(b1-4)[Fuc(a1-6)]GlcNAc", "in_short": "as §1"}, "[18]": {"molecular_target": "Gal(b1-4)GlcNAc(b1-3)Gal(b1-4)GlcNAc(b1-3)Gal(b1-4)GlcNAc(b1-3)Gal(b1-4)GlcNAc(b1-3)Gal(b1-4)GlcNAc(b1-2)Man(a1-3)[Gal(b1-4)GlcNAc(b1-3)Gal(b1-4)GlcNAc(b1-3)Gal(b1-4)GlcNAc(b1-3)Gal(b1-4)GlcNAc(b1-3)Gal(b1-4)GlcNAc(b1-2)Man(a1-6)]Man(b1-4)GlcNAc(b1-4)GlcNAc", "in_short": "as §1"}, "[19]": {"molecular_target": "Gal(b1-4)GlcNAc(b1-3)Gal(b1-4)GlcNAc(b1-3)Gal(b1-4)GlcNAc(b1-3)Gal(b1-4)GlcNAc(b1-3)Gal(b1-4)GlcNAc(b1-2)Man(a1-3)[Gal(b1-4)GlcNAc(b1-3)Gal(b1-4)GlcNAc(b1-3)Gal(b1-4)GlcNAc(b1-3)Gal(b1-4)GlcNAc(b1-3)Gal(b1-4)GlcNAc(b1-2)Man(a1-6)]Man(b1-4)GlcNAc(b1-4)[Fuc(a1-6)]GlcNAc", "in_short": "as §1"}, "[20]": {"molecular_target": "Gal(b1-4)GlcNAc(b1-3)Gal(b1-4)GlcNAc(b1-3)Gal(b1-4)GlcNAc(b1-3)Gal(b1-4)GlcNAc(b1-3)Gal(b1-4)GlcNAc(b1-2)[Gal(b1-4)GlcNAc(b1-3)Gal(b1-4)GlcNAc(b1-3)Gal(b1-4)GlcNAc(b1-3)Gal(b1-4)GlcNAc(b1-3)Gal(b1-4)GlcNAc(b1-6)]Man(a1-6)[Gal(b1-4)GlcNAc(b1-3)Gal(b1-4)GlcNAc(b1-3)Gal(b1-4)GlcNAc(b1-3)Gal(b1-4)GlcNAc(b1-3)Gal(b1-4)GlcNAc(b1-2)Man(a1-3)]Man(b1-4)GlcNAc(b1-4)[Fuc(a1-6)]GlcNAc", "in_short": "as §1"}, "[21]": {"molecular_target": "Gal(b1-4)GlcNAc(b1-3)Gal(b1-4)GlcNAc(b1-3)Gal(b1-4)GlcNAc(b1-3)Gal(b1-4)GlcNAc(b1-3)Gal(b1-4)GlcNAc(b1-3)Gal(b1-4)GlcNAc(b1-2)Man(a1-3)[Gal(b1-4)GlcNAc(b1-3)Gal(b1-4)GlcNAc(b1-3)Gal(b1-4)GlcNAc(b1-3)Gal(b1-4)GlcNAc(b1-3)Gal(b1-4)GlcNAc(b1-3)Gal(b1-4)GlcNAc(b1-2)Man(a1-6)]Man(b1-4)GlcNAc(b1-4)GlcNAc", "in_short": "as §1"}, "[22]": {"molecular_target": "Gal(b1-4)GlcNAc(b1-3)Gal(b1-4)GlcNAc(b1-3)GalNAc", "in_short": "as §1"}, "[23]": {"molecular_target": "Gal(b1-4)GlcNAc(b1-3)Gal(b1-4)GlcNAc(b1-3)[Gal(b1-4)GlcNAc(b1-3)Gal(b1-4)GlcNAc(b1-6)]GalNAc", "in_short": "as §1"}}, "note": "This is one part of the list.", "data": [{"binder": "AT1G15820(NC) (Arabidopsis thaliana) (protein) MAMAVSGAVLSGLGSSFLTGGKRGATALASGVGDAIAPFSFGSLLGTQLLLMGWVESKRWVDFFNPDSQSVEWATPWSKTAENFANYTGDQGYPGGRFFDPLGLAGKNRDGVYEPDFEKLERLKLAEIKHSRLAMVAMLIFYFEAGQGKTPLGALGL", "values": [{"measurement": "glycan array binding signal (z-score)", "setting": "[1]", "result": -0.621}, {"measurement": "glycan array binding signal (z-score)", "setting": "[2]", "result": -0.225}, {"measurement": "glycan array binding signal (z-score)", "setting": "[3]", "result": -0.449}, {"measurement": "glycan array binding signal (z-score)", "setting": "[4]", "result": -0.387}, {"measurement": "glycan array binding signal (z-score)", "setting": "[5]", "result": 3.65}, {"measurement": "glycan array binding signal (z-score)", "setting": "[6]", "result": -0.397}, {"measurement": "glycan array binding signal (z-score)", "setting": "[7]", "result": 0.069}, {"measurement": "glycan array binding signal (z-score)", "setting": "[8]", "result": -0.217}, {"measurement": "glycan array binding signal (z-score)", "setting": "[9]", "result": 0.005}, {"measurement": "glycan array binding signal (z-score)", "setting": "[10]", "result": 0.273}, {"measurement": "glycan array binding signal (z-score)", "setting": "[11]", "result": -0.478}, {"measurement": "glycan array binding signal (z-score)", "setting": "[12]", "result": 0.286}, {"measurement": "glycan array binding signal (z-score)", "setting": "[13]", "result": -0.569}, {"measurement": "glycan array binding signal (z-score)", "setting": "[14]", "result": 0.31}, {"measurement": "glycan array binding signal (z-score)", "setting": "[15]", "result": 0.202}, {"measurement": "glycan array binding signal (z-score)", "setting": "[16]", "result": -0.299}, {"measurement": "glycan array binding signal (z-score)", "setting": "[17]", "result": -0.41}, {"measurement": "glycan array binding signal (z-score)", "setting": "[18]", "result": 0.01}, {"measurement": "glycan array binding signal (z-score)", "setting": "[19]", "result": -0.115}, {"measurement": "glycan array binding signal (z-score)", "setting": "[20]", "result": 0.985}, {"measurement": "glycan array binding signal (z-score)", "setting": "[21]", "result": 0.039}, {"measurement": "glycan array binding signal (z-score)", "setting": "[22]", "result": 0.208}, {"measurement": "glycan array binding signal (z-score)", "setting": "[23]", "result": 4.39}]}]}
